# Test results from PubChem BioAssay AID651820 (National Center for Advancing Translational Sciences (NCATS), 2012).
# Out of some 340,000 compounds screened, about 12,000 (3.5%) were called active. Inconclusive results, whose numbers are uncertain, are shown with a selection of clear calls. The call rests on the fitted dose curve; in most records, active means well fitted inhibition curve with a large enough effect; inconclusive means small, poorly fitted or top-dose-only effect, or another doubt; inactive means no such curve, though single readings can be large or run the other way. Potencies of inconclusive entries are left out as doubtful fits.
# Test: qHTS Assay for Inhibitors of Hepatitis C Virus (HCV)
# Conditions: Huh7.5.1 HCVcc-Cre (HCVcc is cell-culture hepatitis C virus) infection, luciferase reporter, 44 h; activity change, negative = inhibition: at 41.8 µM (top of the series) unless noted
# Procedure, shortened: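 Reporter virus HCVcc-Cre (~0.5 moi) infects cells exposed to compound; seeding density 1,000 cells/well with 4 h settling beforehand. Luminescence, 15 sec read, taken 44 h post-infection following a 15 min RT substrate incubation.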
# On the % scale 0 is the no-effect control and ±100 the full control effect; potency means the concentration at half of the fitted maximal effect; tags describe the fitted curve by direction and shape.
Compound,"activity change, negative = inhibition",Potency
OC(c1cccs1)(c1cccs1)C1C[N+]2(CF)CCC1CC2 (centres undefined),inactive: 25.4%,
COc1cc(/C=N/Nc2nc3c(c(=O)n(C)c(=O)n3C)n2Cc2ccccc2)ccc1OC(=O)c1ccco1,,"inconclusive [inhibitor, partial curve]"
Cc1cccc(-c2noc(CNC(=O)Nc3ccc(F)cc3)n2)c1,,"inconclusive [inhibitor, partial curve]"
CCOC(=O)C1(Cc2ccc(Cl)cc2)CCN(C(C)Cc2ccc(O)c(OC)c2)CC1 (centres undefined),,active: 10 µM
COc1ccc(NC(=O)CN(C)C(=O)/C=C/c2ccc(S(=O)(=O)N3CCCCCC3)cc2)cc1,,"inconclusive [inhibitor, single point]"
CC(=O)c1cccc(Nc2cc(C)nc3ccccc23)c1,,"inconclusive [inhibitor, single point]"
Cc1ccc(Nc2nnc(SCC(=O)Nc3cccc(S(=O)(=O)NC4=NCCCCC4)c3)s2)cc1,inactive: 16.9%,
CC(C)[C@H](NC(=O)c1ccco1)C(=O)OCc1cc(=O)n2c(n1)sc1ccccc12,inactive: -0.0404%,
Cc1ccc(SCc2ccc(C(=O)Nc3nccs3)o2)cc1,,"inconclusive [inhibitor, partial curve]"
CC(Oc1ccc(Cl)cc1)c1ccnn1S(=O)(=O)c1ccc(Cl)cc1 (centres undefined),,"inconclusive [inhibitor, single point]"
O=C(NNC1CC(=O)N(c2ccc(Cl)cc2)C1=O)c1ccccn1 (centres undefined),inactive: 13.1%,
C/C(=N\NC(=O)COc1cccc(C)c1)c1ccc2ccccc2c1O,,active: 11.2 µM
OCCN(CCO)c1cc2c3ccccc3ccc2c2ccccc12,,"inconclusive [inhibitor, partial curve]"
COc1ccc(CNCCC(c2ccc(F)cc2)c2ccc(OC(C)C)cc2)cc1OC (centres undefined),,"inconclusive [inhibitor, partial curve, poor fit]"
COc1ccccc1CNC(=O)CCc1c(C)nc2cc(-c3ccccc3OC)nn2c1C,,"inconclusive [inhibitor, partial curve]"
CCN(CC)S(=O)(=O)c1ccc(/C=C/C(=O)OCC(=O)NNC(=O)c2ccc(OC)cc2)cc1,inactive: -6.5%,
O=C1NC2(CCCCC2)C(=O)N1CCS(=O)(=O)Oc1ccccc1,,"inconclusive [inhibitor, full curve]"
COC(=O)CNC(c1ccccc1)c1cc(Br)ccc1NC(=O)OCc1ccccc1 (centres undefined),,"inconclusive [inhibitor, single point]"
O=S(=O)(c1ccccc1)N1CCN(C(=S)NCCCN2CCOCC2)CC1,,"inconclusive [inhibitor, single point]"
CC(C)(C)N(Cc1ccccc1)C(=O)COC(=O)c1cccc([N+](=O)[O-])c1,inactive: 8.92%,
CCCNC(=O)Nc1ccccc1C(=O)Nc1ccc(OC)cc1,,"inconclusive [inhibitor, full curve, poor fit]"
O=C(c1ccc(Cl)c(Cl)c1)N1CCC(=O)N(C(COCc2ccccc2)Cc2ccccc2)CC1 (centres undefined),,"inconclusive [inhibitor, partial curve]"
COc1c(C)cc(C(=O)C2CCCN(Cc3ccc(Oc4ncccn4)cc3)C2)cc1C (centres undefined),,"inconclusive [inhibitor, partial curve]"

Compound,"activity change, negative = inhibition",Potency
CCN(CC)CCCNc1ccc2ncn3c4ccc(O)cc4c(=O)c1c23,,"inconclusive [inhibitor, full curve]"
COc1ccc2oc(C)c(C(=O)c3ccc([N+](=O)[O-])cc3)c2c1,,"inconclusive [inhibitor, partial curve]"
COc1cc(C(C)=O)ccc1OCC(=O)Nc1cc(Cl)ccc1-n1cncn1,,"inconclusive [inhibitor, partial curve, poor fit]"
CSc1nc(SCC(=O)NC(c2ccccc2)c2ccccc2)c2c3c(sc2n1)CN(C)CC3,,active: 1.78 µM
CCN(CC(=O)Nc1cccc(OC)c1)C(=O)c1ccncc1,,"inconclusive [inhibitor, single point]"
O=C(CN1CCC(C(O)(c2ccccc2)c2ccccc2)CC1)Nc1ccccc1,,"inconclusive [inhibitor, partial curve]"
CCCC(=O)NC(=S)Nc1ccc(NC(=O)C(C)C)c(OC)c1,,"inconclusive [inhibitor, single point]"
CCOc1ccc(-c2onc(C(F)(F)F)c2-c2cscn2)c(O)c1,,active: 10 µM
CCCCC[n+]1ccn(C2=C([O-])c3ccccc3C(=O)/C2=N\S(=O)(=O)c2ccc(Cl)cc2)c1,inactive: 4.38%,
COc1ccc(CCn2c(-c3ccc(C(C)(C)C)cc3)n[nH]c2=S)cc1OC,,"inconclusive [inhibitor, single point]"
Cc1ccc(-c2cn(-c3ccccc3)c(=S)[nH]2)cc1C,inactive: -10.8%,
OCCC1CN(CC2CCCCC2)CCN1CC1CCCCC1 (centres undefined),,"inconclusive [inhibitor, full curve]"
CN(C(=O)c1cccc(NC(=O)Cc2ccc(NC(=O)C3CCN(C(=O)C4CC4)CC3)cc2)c1)C1CCC1,inactive: -7.1%,
CC1Oc2ccccc2C=C1/C=N/NC(=O)[C@@H](C)NC(=O)OC(C)(C)C (some centres undefined),,"inconclusive [inhibitor, single point]"
CNCC[C@H](Oc1cccc2ccccc12)c1cccs1,,"inconclusive [inhibitor, single point]"
O=C(Cc1ccc(F)cc1)Nc1ccc2[nH]ncc2c1,inactive: -1.55%,
CC(NC(=O)c1ccccc1F)c1cccc2ccccc12 (centres undefined),,"inconclusive [inhibitor, partial curve]"
COc1ccc(S(=O)(=O)N(CC(=O)N/N=C/c2ccccc2C(=O)O)c2ccccc2OC)cc1,inactive: 19.8%,
C=CCc1cc(/C=C2/NC(=O)N(CC)C2=O)cc(OCC)c1OCc1ccc(C(=O)O)cc1,,"inconclusive [inhibitor, partial curve]"
COc1cccc(N2CCN(C(=O)CN(c3ccc(C)cc3)S(=O)(=O)c3c(C)n[nH]c3C)CC2)c1,inactive: -0.259%,
CC1(C)Cc2ccccc2C(/C(C#N)=N/O)=N1,inactive: 2.06%,
CCOc1cc(C2NN=C(c3ccccc3)S2)ccc1OCc1ccc(F)cc1 (centres undefined),,"inconclusive [inhibitor, partial curve]"
Cc1nn(C)c(C)c1C(C)NC(=O)c1cc(COc2ccc(F)c(F)c2)on1 (centres undefined),,"inconclusive [inhibitor, full curve, poor fit]"

Compound,"activity change, negative = inhibition",Potency
O=C(NCc1ccco1)Nc1ccc(Br)cc1Cl,,"inconclusive [inhibitor, full curve, poor fit]"
CC(=O)Nc1ccc(C(=O)Nc2nc(-c3cc(C)n(Cc4ccccc4)c3C)cs2)cc1,,"inconclusive [inhibitor, full curve]"
COc1cccc(-c2noc(C3CCCN(C(=O)Cc4ccccc4)C3)n2)c1 (centres undefined),,"inconclusive [inhibitor, single point]"
Cc1cc(C(=O)Nc2cccc3c2O[C@@H](CN(C)S(C)(=O)=O)[C@H](C)CN([C@@H](C)CO)C3=O)n(C)n1,inactive: 11.8%,
COc1ccc(Cl)cc1NC(=O)CN(C)Cc1cccs1,,"inconclusive [inhibitor, single point]"
COc1ccc(C2(C(=O)NC(C)C)CCCC2)cc1OC,inactive: 0.76%,
COc1ccc(S(=O)(=O)N2CCOCC2)cc1NC(=O)CSc1nnc2n1CCCCC2,inactive: 12.7%,
CC(C)(C)c1ccc(-c2nc(NCc3cccnc3)c3ccccc3n2)cc1,,active: 11.2 µM
Cc1cccc(/C=C/c2onc(C)c2S(=O)(=O)N2CCC(C(=O)N3CCCCCC3)CC2)c1,,"inconclusive [inhibitor, partial curve]"
COc1ccccc1N1CC(O)=C(c2nc3ccccc3s2)C1=N,,active: 11.2 µM
Cc1nn(C2CCS(=O)(=O)C2)c2nc(C3CC3)cc(C(=O)Nc3cccc(C#N)c3)c12 (centres undefined),,"inconclusive [inhibitor, partial curve, poor fit]"
COc1ccccc1N1CCN(C(=O)/C=C/c2ccc(C)cc2)CC1,,"inconclusive [inhibitor, partial curve]"
N#C/C(=C/c1cccs1)c1nc2ccccc2[nH]1,,"inconclusive [inhibitor, single point]"
O=S(=O)(NCC(O)c1ccccc1)c1cc(Cl)sc1Cl (centres undefined),inactive: 17%,
C/C(=N/NC(=O)C1CC1(c1ccccc1)c1ccccc1)c1ccco1 (centres undefined),,"inconclusive [inhibitor, single point]"
O=C(CSC1=NCCS1)Nc1nc2c(s1)CCCC2,,"inconclusive [inhibitor, partial curve]"
COc1ccc(CC(=O)Nc2cccc(-c3nnc(-c4ccco4)o3)c2)cc1,,"inconclusive [inhibitor, single point]"
O=C(O)/C(=C\c1ccc(-c2ccccc2[N+](=O)[O-])o1)c1ccccc1,inactive: 1.34%,
S=C(NCc1ccco1)Nc1cccc(Cl)c1,,"inconclusive [inhibitor, single point]"
O=C(CCCN1CCC(O)(c2ccc(Br)cc2)CC1)c1ccc(F)cc1,,"inconclusive [inhibitor, partial curve]"
COc1ccc(CN2CSC(=S)N(Cc3ccccc3)C2)cc1,,"inconclusive [inhibitor, single point]"
CCN(CC)c1ccc(NC(=O)c2cnc3ccccn3c2=O)c(C)c1,inactive: -18.8%,
Cc1nnsc1C(=O)NNC(=O)c1cccc2ccccc12,inactive: 17.8%,
